From PubChem BioAssay AID1159614 (National Center for Advancing Translational Sciences (NCATS), 2016)
About 65 (0.1%) of roughly 45,000 compounds were called active. Calls follow the shape of the dose curve; as a rule, active = well fitted activation curve with a large enough effect; inconclusive = small, poorly fitted or top-dose-only effect; inactive = no such curve, though single readings can be large or run the other way. Some of the results follow.

Target: Galactocerebrosidase (Homo sapiens) (UniProt P54803)
Chain of UniProt P54803 (P54803 whole entry, looked up): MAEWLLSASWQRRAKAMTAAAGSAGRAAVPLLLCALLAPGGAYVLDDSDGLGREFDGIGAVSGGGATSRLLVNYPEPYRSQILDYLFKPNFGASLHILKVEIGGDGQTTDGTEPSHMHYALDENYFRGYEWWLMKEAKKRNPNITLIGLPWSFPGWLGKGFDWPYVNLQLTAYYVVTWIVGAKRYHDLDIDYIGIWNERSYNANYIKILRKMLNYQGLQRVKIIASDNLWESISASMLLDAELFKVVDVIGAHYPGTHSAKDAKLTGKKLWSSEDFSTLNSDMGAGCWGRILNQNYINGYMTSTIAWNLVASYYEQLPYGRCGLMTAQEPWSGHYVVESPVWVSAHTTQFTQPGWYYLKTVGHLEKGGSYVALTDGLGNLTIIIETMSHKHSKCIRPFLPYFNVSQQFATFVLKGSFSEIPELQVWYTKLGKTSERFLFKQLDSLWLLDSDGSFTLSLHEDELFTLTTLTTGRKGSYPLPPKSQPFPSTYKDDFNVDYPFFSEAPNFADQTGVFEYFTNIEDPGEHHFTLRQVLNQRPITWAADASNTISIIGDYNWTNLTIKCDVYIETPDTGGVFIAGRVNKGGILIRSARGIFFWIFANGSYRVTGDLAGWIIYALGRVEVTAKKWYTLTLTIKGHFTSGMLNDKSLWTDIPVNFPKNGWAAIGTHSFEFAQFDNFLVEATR
Assay: A Novel Cell-Based Assay to Identify Small Molecules for B -Galactocerebrosidase; also: 0% is about no effect; nearly all actives have a fitted effect of over 65% in size
Conditions: 145M-Twi-hGALC-G270D cells (Twitcher mouse brain line with human GALC G270D), HMU-beta-Gal fluorescence, 48 h; series mostly up to 57.5 µM; activation: at the top concentration
Outline: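 Fluorogenic HMU-b-Gal hydrolysis (0.1 mM final, pH 5.2 citrate-phosphate with 1 mg/mL sodium taurocholate; carbonate stop buffer) measures mutant GALC activity after compound treatment of live 145M-Twi Twitcher brain cells stably carrying human GALC-G270D, with wild-type GALC line alongside; activation sought.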

activation, inactive:
COc1ccc(Br)cc1CNC(=O)c1ccc2c(c1)nc1n2CCCCC1 -0.634%, Cc1c(C(=O)NCc2ccccc2Cl)sc2nc3n(c(=O)c12)CCC3 -15.9%, Cc1cc(C)cc(N2CCn3c2nc2c3c(=O)n(CCc3ccccc3)c(=O)n2C)c1 -16.3%, COc1ccc(N(CC(=O)NCc2ccc(C)cc2)S(=O)(=O)c2c(C)[nH]c(=O)[nH]c2=O)cc1 -16.5%, CC(=O)N/N=C/c1ccc([N+](=O)[O-])o1 -13.6%, Cc1cccc(-c2nc3nc(C)cc(N4CCN(c5ccccc5)CC4)n3n2)c1 -12%, COc1ccc(N2CCN(C(=O)CCn3cnc4onc(-c5ccc(F)cc5)c4c3=O)CC2)cc1 -33.7%, COc1ccc(NS(=O)(=O)c2ccc(NS(=O)(=O)c3ccc4c(c3)OCCO4)cc2)cc1 -8.96%, CC(C)(C)C1CCc2c(sc(NC(=O)c3ccncc3)c2C(=O)Nc2ccccc2Cl)C1 (configuration not stated) -5.73%, COc1cccc(N2CCN(Cc3nnc(-c4ccc5c(c4)OCO5)o3)CC2)c1 -8.35%, COc1ccc(NC(=O)N2CCN(c3cc(-c4noc(C)n4)ccc3C)CC2)c(OC)c1 -8.51%, Cc1ccc(-c2nc3c4ccccc4n(Cc4cccc(Cl)c4)c(=O)n3n2)cc1 4.78%, CCOC(=O)Cc1ccc(NC(=O)N2CC(CC)Oc3ccccc32)cc1 (configuration not stated) -11.7%, COc1ccc2nc(N3CCN(C(=O)c4ccco4)CC3)sc2c1 -12.7%, COc1ccc(OC)c(CNC(=O)C2COc3ccccc3C2)c1 (configuration not stated) -5.26%, CCc1ccc(S(=O)(=O)c2nnn3c2nc(N2CCCC(C)C2)c2cc(Cl)ccc23)cc1 (configuration not stated) -12.8%, CCN1CCN(CCCNC(=O)Cn2nc(C)n3c(cc4cc(C)ccc43)c2=O)CC1 -6.44%, CCCc1ccc(NC(=O)C2CCN(c3cnccn3)CC2)cc1 -8.06%, Cc1ccc(NC(=O)Cc2ccc(NC(=O)N3CCCCc4ccccc43)cc2)cc1 -9.53%, Clc1ccc(CSc2nc3ncccc3[nH]2)cc1 -5.31%, Cc1nc2ccccc2n1CCc1nc2c3ccccc3nc(SCC(=O)Nc3ccc(C(C)C)cc3)n2n1 -1.79%, O=C(Nc1nonc1-c1ccc(Br)cc1)c1ccco1 -1.95%, COc1ccc(NC(=O)c2ccco2)cc1NC(=O)COc1ccc(C)cc1C -10.3%, Cc1ccc(NC(=O)CSc2[nH]c(=O)ncc2C)cc1 -11.3%, CSc1cccc(NC(=O)Cn2nnc(C(=O)NCCc3ccccc3)c2N)c1 -10.2%, Cc1cc(Cl)ccc1NC(=O)CN1C(=O)C(=O)c2ccccc21 -9.18%, Cn1c(=O)n(CCc2ccccc2)c(=O)c2c1nc1n2CCN1c1ccc(Cl)cc1 -1.21%, Cc1cccc(N2CCN(c3ccc(C(=O)O)cc3NC(=O)c3ccccc3F)CC2C)c1 (configuration not stated) -36.5%, C=CCN1CCc2nc(N)sc2CC1 -15.5%, COC(=O)C1=C(c2ccccc2)c2ccccc2S(=O)(=O)N1CC(=O)Nc1ccccc1C(F)(F)F -4.77%, CCCCC(=O)Nc1ccc(C(=O)OCc2cc(=O)n3nc(C4CC4)sc3n2)cc1 -6.74%, COc1ccc(S(=O)(=O)Cc2ccc(C(=O)NC3CCCCC3)o2)cc1 4.68%, CC(=O)c1ccc(N2CCN(C(=O)Nc3cccc(F)c3)CC2)cc1 -2.42%, Cc1cc(C)c2c(-n3cccc3)c(C(=O)NCCc3ccccc3)sc2n1 -10.2%, CCN(CC)c1ccc(C(=O)NCc2ccc3c(c2)CCN3C(C)=O)cc1 -18.8%, CC(C)CC(=O)Nc1c(C(=O)N2CCN(c3ccccc3F)CC2)oc2ccccc12 -29%, CC(C(=O)Nc1ccccc1C(F)(F)F)n1nc(-c2ccccc2)c2c(c1=O)CCCC2 (configuration not stated) -0.0805%, Cc1ncc(CO)c2c1Oc1nc(-c3ccccc3)nc(SCC(=O)Nc3cccc(C(F)(F)F)c3)c1C2 -0.777%, CCOc1ccc(N(CC)C(=O)CSc2n[nH]c(-c3ccccc3)n2)cc1 -1.76%, CCn1cc(C(=O)NCc2ccccc2Cl)c(=O)c2cc(S(=O)(=O)N3CCCCC3)ccc21 -19%, Cc1sc2c(c1C)c(=O)n(-c1cccc(C(F)(F)F)c1)c(=O)n2Cc1ccccc1C#N -12.1%, Cc1ccccc1NC(=O)CN1C(=O)CCn2nc(-c3cccn3C)cc21 -11%, Cc1ccc(OCCCCn2c(CCNC(=O)C(C)(C)C)nc3ccccc32)cc1 -14.3%, Cc1ccccc1-c1noc(CSc2nnc(-c3ccncc3)n2-c2ccc(F)cc2)n1 -3.94%, CCCCn1c(-c2ccc(C)cc2)c(C)n2c3c(=O)n(C)c(=O)n(C)c3nc12 -3.85%, CC1=C(C(=O)Nc2cccnc2)C(c2ccccc2)n2nc(SCc3ccccc3F)nc2N1 (configuration not stated) 4.53%, O=C(Cc1ccccc1)Nc1cccc(-c2nc3cccnc3s2)c1 -4.67%, O=C(NC1CCCC1)c1ccc2c(c1)N(Cc1ccccc1F)C(=O)c1ccccc1S2 -17.1%, Cc1oc(-c2ccc(C(=O)NCc3ccccc3)cc2)nc1CS(=O)(=O)c1ccccc1 -16.2%, COc1ccc(-c2coc3c2c(C)cc2oc(=O)cc(C)c23)cc1 -15.6%, O=C(CSc1n[nH]c(-c2ccccc2Cl)n1)N1CCN(c2ccccc2F)CC1 -11%, CCOc1ccc(N(CC(=O)NCc2ccc(Cl)cc2)S(=O)(=O)c2c(C)noc2C)cc1 -9.85%, COc1ccc(CCN2C(=O)N(c3ccc(F)cc3)C(=O)C2CC(=O)Nc2ccc(F)c(F)c2)cc1 (configuration not stated) -7.6%, Cc1cc(NC(=O)Nc2csc3c2CCCC3)ccc1Br -43.1%, COCCCNC(=O)C1CCC(Cn2c(=O)c3sccc3n(Cc3ccc(F)cc3)c2=O)CC1 (configuration not stated) -13%, Cc1cccc(N2CCN(C(=O)c3oc(=O)c4ccccc4c3-c3ccccc3)CC2)c1C 1.06%, Cc1c(NC(=O)c2ccc(N3CCC(C)CC3)c([N+](=O)[O-])c2)cccc1-c1nc2ccccc2o1 -27%, COc1ccc(CCNC(=O)CCc2c(C)nc3c(c(C)nn3-c3ccccc3)c2C)c(OC)c1 -3.89%, Cc1cccc(N(C)C(=S)Oc2ccc3c(c2)CCC3)c1 -14.4%, COc1ccccc1C(=O)Nc1nnc(SCc2cc(=O)n3ccc(C)cc3n2)s1 -5.18%, CCc1cccc(C)c1NC(=O)C(C)Sc1nc2c(c(=O)[nH]1)CCCC2 (configuration not stated) -1.37%, COc1ccc(-c2noc(N3CCN(c4cccc(C)c4C)CC3)n2)cc1OC -5.34%
